From PubChem BioAssay AID1159614 (National Center for Advancing Translational Sciences (NCATS), 2016)
Out of some 45,000 compounds screened, about 65 (0.1%) were called active. Calls come from the whole dose curve; as a rule, active = well fitted activation curve with a large enough effect; inconclusive = small, poorly fitted or top-dose-only effect; inactive = no such curve, though single readings can be large or run the other way. The list shows a part of the results.

molecular target: Galactocerebrosidase (Homo sapiens) (UniProt P54803); test: A Novel Cell-Based Assay to Identify Small Molecules for B -Galactocerebrosidase; details: 145M-Twi-hGALC-G270D cells (Twitcher mouse brain line with human GALC G270D), HMU-beta-Gal fluorescence, 48 h; series mostly up to 57.5 µM; activation: at the top concentration; note: 0% is about no effect; nearly all actives have a fitted effect of over 65% in size
How it was run: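 Fluorogenic HMU-b-Gal hydrolysis (0.1 mM final, pH 5.2 citrate-phosphate with 1 mg/mL sodium taurocholate; carbonate stop buffer) measures mutant GALC activity after compound treatment of live 145M-Twi Twitcher brain cells stably carrying human GALC-G270D, with wild-type GALC line alongside; activation sought.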

Sequence of UniProt P54803 (P54803 whole entry, looked up): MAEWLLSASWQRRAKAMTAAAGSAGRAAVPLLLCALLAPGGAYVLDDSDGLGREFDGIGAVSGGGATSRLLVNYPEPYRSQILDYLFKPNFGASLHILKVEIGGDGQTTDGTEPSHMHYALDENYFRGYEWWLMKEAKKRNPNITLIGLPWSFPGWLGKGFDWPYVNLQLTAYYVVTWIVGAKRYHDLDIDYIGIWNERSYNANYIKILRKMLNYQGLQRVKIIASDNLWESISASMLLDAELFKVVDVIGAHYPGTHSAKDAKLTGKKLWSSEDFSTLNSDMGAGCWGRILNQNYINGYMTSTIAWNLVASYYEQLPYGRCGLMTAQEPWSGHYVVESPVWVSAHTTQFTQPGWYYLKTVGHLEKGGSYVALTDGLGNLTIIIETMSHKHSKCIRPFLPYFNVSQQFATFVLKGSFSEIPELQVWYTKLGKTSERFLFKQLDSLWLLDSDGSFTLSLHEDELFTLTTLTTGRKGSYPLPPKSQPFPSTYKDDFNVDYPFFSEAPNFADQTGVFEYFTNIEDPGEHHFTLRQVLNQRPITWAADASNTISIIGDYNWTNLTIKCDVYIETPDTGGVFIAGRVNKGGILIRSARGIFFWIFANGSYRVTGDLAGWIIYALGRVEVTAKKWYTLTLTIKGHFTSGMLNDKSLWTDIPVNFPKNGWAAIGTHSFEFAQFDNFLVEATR

activation, inactive:
COC(=O)c1c(NC(=O)c2cc(=O)c3c(C)cc(C)cc3o2)sc2c1CCCC2 -9.32%
CCc1ccccc1Nc1cc(C(=O)NCc2ccc(C)cc2)c2ccccc2n1 -10.1%
COc1ccc(N2C(=O)CSC23C(=O)N(C)c2ccccc23)cc1Cl (stereo not given) 4.18%
O=C(c1c2c(nc3ccccc13)C(=O)N(C1CCCCC1)C2)N1CCN(c2ccc(F)cc2)CC1 -8.43%
CCOC(=O)N1CCN(C(=O)c2ccc3c(c2)N(Cc2ccccc2F)C(=O)c2ccccc2S3=O)CC1 (stereo not given) 3.04%
CC(=O)N1CCCc2cc(S(=O)(=O)N3CCC(C(=O)N(Cc4ccccc4)C(C)C)CC3)ccc21 -18.2%
COCCn1c(C)cc(O)c(C(c2ccccc2)N2CCC(C)CC2)c1=O (stereo not given) -13.9%
c1ccc2[nH]c(-c3cscn3)nc2c1 1.93%
CCCOc1ccccc1-c1nc(SCC(=O)c2ccccc2)n[nH]1 -37.1%
Cc1ccc(-c2cc(NC(=O)c3ccccc3Cl)on2)cc1 -24.3%
CCOC(=O)c1c(S(=O)(=O)N2CCCC(C(=O)Nc3ccc(OCC)cc3)C2)c(C)n(C)c1C (stereo not given) -21.9%
CCOc1ccc(NC(=O)c2cc3sc(Cl)cc3n2CC)cc1 -4.99%
COc1ccc(C)cc1Nc1nc2c(S(=O)(=O)c3cccc(Cl)c3)nnn2c2ccsc12 -0.699%
Cc1ccc(S(=O)(=O)c2cn(Cc3cccc(F)c3)c3cc(N4CCCC4)c(F)cc3c2=O)cc1 -15.6%
Cc1cc(C)n(C(C)CC(=O)NCc2ccccc2C)n1 (stereo not given) -14.4%
CC(=O)Nc1ccc(S(=O)(=O)N2CCC(c3ccncc3)CC2)cc1 -9.09%
COc1ccc(Br)cc1C(=O)Nc1ccc2oc(-c3cccnc3)nc2c1 -10.1%
CCCCN(CCCC)c1ncnc2c1cnn2-c1cccc(C)c1 -4.26%
O=C(Nc1ccc(C(=O)N2CCN(c3ccc(F)cc3)CC2)cc1)c1nsc2ccccc12 -8.07%
CCOc1cc(CNS(=O)(=O)c2ccc3c(c2)CC(=O)N3C)cc(OCC)c1OCC -16.8%
CCN1CCN(CCCNC(=O)c2ccc3nc(Cc4ccc(OC)cc4)oc3c2)CC1 -4.06%
COc1ccc(C2CC(=O)Nc3c2c(=O)nc2c(C)cccn32)cc1OC (stereo not given) -6.95%
CCCCC1CCC(C(=O)N2CC(=O)Nc3ccc(F)cc3C2c2ccc(F)cc2)CC1 (stereo not given) -10.6%
COc1ccccc1CNC(=O)Cc1c(C)c2c(cc(C)c3c(C)c(C)oc32)oc1=O -10.9%
CCC1CN(C(=O)NCc2cccc(OC)c2)c2cc(Cl)ccc2O1 (stereo not given) -7.27%
Cc1ccccc1C(=O)c1cccn1CC(=O)NCc1ccc(Cl)cc1 2.36%
COc1ccc(OCc2ccc(-c3nc(C#N)c(N4CCN(C)CC4)o3)o2)cc1 -10.3%
COc1ccc(CCNC(=O)CCCn2c(=O)c3cccn3c3cccnc32)cc1OC -10.2%
Cc1ccc2c(CN3CCN(Cc4ccccc4Cl)CC3)cc(=O)oc2c1 -10.2%
CCOc1ccc(CNC(=O)c2ccc(Sc3ccc(Cl)cc3)c(NC(C)=O)c2)cc1 -0.376%
COc1ccc(NC(=O)CSc2cn(CC(=O)N3CCCCC3)c3ccccc23)c(OC)c1 -3.58%
CCCC(=O)Nc1ccc2c(c1)nc(CN1CCN(C(=O)OCC)CC1)n2C(C)C 6.87%
CCOC(=O)c1c(NC(=O)COc2cccc(C(F)(F)F)c2)sc2c1CCC(C)C2 (stereo not given) -19.4%
CCn1c2ccccc2c2nnc(N3CCN(c4ccc(F)cc4)CC3)nc21 -16.1%
CCN(CC)c1nn2c(=O)c(C(=O)NCCc3ccc(C)cc3)cnc2s1 -14%
COc1ccc(NC(=O)c2ccc(CN3C(=O)CCn4nc(C)cc43)cc2)c(OC)c1 -2.11%
Cc1nc2sc(C(=O)N(C)Cc3ccccc3)c(NC(=O)c3ccccc3)c2c(C)c1Cl -14.4%
CCOC(=O)c1cc2c(=O)n3ccccc3nc2n(CC2CCCO2)c1=NC(=O)c1ccc(C(C)(C)C)cc1 (stereo not given) -29%
COc1ccc(N2CC(NC(=O)COc3ccccc3F)CC2=O)cc1OC (stereo not given) -12.3%
CCOc1ccc(NC(=O)CSc2oc(-c3ccco3)nc2S(=O)(=O)c2ccc(C)cc2)cc1 -8.73%
COc1ccc(C)c2sc(NC(=O)c3ccc(S(=O)(=O)N4CCCCC4)cc3)nc12 -9.15%
CC(C)CCNC(=O)CN1C(=O)CCn2nc(-c3cn(C)c4ccccc34)cc21 -16.2%
Cc1cc(C)cc(Nc2ncnc3c2nc2n3CCCC2)c1 -2.25%
CCOc1ccc(CCNC(=O)c2ccc(-c3nc(CSc4ccc(C)cc4)c(C)o3)cc2)cc1 -19.4%
CCCOc1ccc(/C=C/C(=O)Nc2sc(C)c(C)c2C(=O)OCC)cc1OC -13.8%
CCCN1CCN(CCCNC(=O)c2cc3c(Cl)nc4ccccc4c3s2)CC1 -8.5%
CCOc1ccc(S(=O)(=O)NCCc2csc(-c3ccc(Cl)cc3)n2)cc1 -16.1%
Cc1nnc(SCc2cc(=O)c3ccccc3[nH]2)s1 -3.69%
Cc1nc(S(=O)(=O)N2CCN(c3ccc(Cl)cc3)CC2)cn1C -20.3%
COc1ccccc1NC(=O)Cn1nnc(C(=O)NCc2cccs2)c1N -1.48%
O=c1cc(COc2ccccc2Cl)nc2scc(-c3ccccc3)n12 -4.4%
CCc1cccc(NC(=O)CSc2ncc3c(n2)-c2cc(Cl)ccc2N(C)S3(=O)=O)c1 -20.6%
CCOC(=O)c1ccc(N2C(=O)c3[nH]nc(-c4ccc(OC)cc4)c3C2c2cccc(O)c2)cc1 (stereo not given) 11.2%
COc1ccccc1CNC(=O)CCn1c(=O)c2ccccc2n(CC(=O)Nc2cc(Cl)ccc2C)c1=O -0.68%
O=C(Nc1cccc(C(=O)OCc2cc(=O)n3c4c(sc3n2)CCCC4)c1)c1cccc(F)c1 -14.7%
COc1ccc(NC(=O)CCS(=O)(=O)c2nc(-c3ccc4c(c3)OCO4)cc(C(F)(F)F)n2)cc1OC -6.25%
CCC(C)NC(=O)CCSc1nc(-c2ccc3c(c2)OCO3)cc(C(F)(F)F)n1 (stereo not given) -10.5%
C[C@]12C=CC(=O)C=C1[C@@H](F)C[C@@H]1[C@@H]2[C@@H](O)C[C@@]2(C)[C@H]1CC[C@]2(O)C(=O)CO -11.8%
Cc1ccc(C2NC(=O)c3n[nH]c(-c4cccs4)c32)cc1 (stereo not given) -7.96%
Cc1ccc(Cl)cc1N1CCN(C(=O)Cn2nc(C)c3sc4ccccc4c3c2=O)CC1 -15.3%
COCCNC(=O)c1c(NC(=O)c2cc(=O)c3cc(C)cc(C)c3o2)sc2c1CCCC2 -9.03%
Cc1ccc(NC(=O)CSc2nc3ccc(NC(=O)c4ccco4)cc3s2)cc1 -3.4%
COc1ccc(C2CC(=O)c3cc(-c4nc(-c5cccc([N+](=O)[O-])c5)cs4)c(=O)n(-c4cccc(C)c4)c3C2)cc1 (stereo not given) -5.75%
COc1cc(C(=O)NCc2ccc3c(c2)CCN3C(=O)c2ccc(Cl)cc2)cc(OC)c1OC -6.17%
COC(=O)c1c(NC(=O)Cc2coc3cc(C)cc(C)c23)sc2c1CCC2 -10.4%
Cc1ccc(NC(=O)CSc2nc(=O)n(Cc3ccccn3)c3c2CCC3)cc1F -1.22%
COc1cccc(Cn2c(C)c(CNCc3cccc(C)c3)c(C(=O)O)c2C)c1 2.27%
O=C(Nc1ccccc1Cl)N1CCC2(CC1)Oc1ccccc1C(=O)N2Cc1ccc(F)cc1 -15.6%
CC(=O)c1ccc(NC(=O)c2ccc(-c3nc(CSc4ccc(C)cc4)c(C)o3)cc2)cc1 -13.1%
CCc1ccc(NC(=O)c2cnc3c(-c4ccccc4)c(C)nn3c2C)cc1 -5.43%
CCc1ccccc1NC(=O)Cn1c(=O)n(CCc2ccccc2)c(=O)c2sc3ccccc3c21 0.528%
COc1ccc(-c2c3c(nc4sc(C(=O)Nc5cccc(OC)c5)c(N)c24)CC(C)(C)CC3=O)cc1 -9.76%
NC(=O)NC(=O)Cc1ccccc1 -13.2%
O=C(CSc1nc2ccccc2nc1Cc1ccccc1)N1CCc2ccccc21 -12%
Cc1cccc(-c2nc3c4ccccc4nc(N4CCN(c5cccc(Cl)c5)CC4)n3n2)c1 -11.4%
Cc1cc(C)c2oc(-c3cccc(NC(=O)c4cccc(F)c4)c3C)nc2c1 -3.33%
CCC(C)NC(=O)c1ccc(CNS(=O)(=O)c2ccc3c(c2)C(C)(C)C(=O)N3C)cc1 (stereo not given) 4.39%
CCCCN(C)C(=O)CSc1c2c(nc3ccc(Cl)cc13)CCCC2 -20.8%
COc1ccc(CCNC(=O)c2ccc(Cn3c(=O)c4cccn4c4cccnc43)cc2)cc1OC 2.37%
Cc1cc(C)n2nc(CNS(=O)(=O)c3cccc(Cl)c3)nc2n1 -8.83%
Cc1cc(C(=O)N2CCN(c3ccccc3F)CC2)c2c(C)nn(-c3ccccc3)c2n1 -2.99%
Cc1cc(C)c2c(n1)nn1c(C)c(CCC(=O)Nc3cccc(C)c3C)c(C)nc21 -17%
Cc1cccc(N2CCN(CCCNC(=O)Cn3ncc4c([nH]c5ccccc54)c3=O)CC2C)c1 (stereo not given) 6.24%
Cc1ccc(Cl)cc1N1CCN(C(=O)C2CCN(S(=O)(=O)c3cn(C)cn3)CC2)CC1 -2.67%
Cc1ccc(Cl)cc1NC(=O)CN1C=NS(=O)(=O)c2ccccc21 -13.7%
CCc1ccc(S(=O)(=O)Nc2ccc3c(c2)sc(=O)n3C)cc1 -18.4%
CCc1nn(CCCC(=O)NCc2ccccc2OC)c(=O)c2cc3occc3n12 -12.6%
Cc1cccc(Cn2c(=O)n(-c3cc(C)cc(C)c3)c(=O)c3oc4ccccc4c32)c1 -7.02%
CCc1nn(CC(=O)NCc2ccccc2)c(=O)c2cccn12 -12.3%
CCOCCCn1c(=N)c(C(=O)NC2CCCCC2)cc2c(=O)n3ccccc3nc21 -15.6%
O=C(NCCS(=O)(=O)N1CCN(c2cccc(Cl)c2)CC1)C(c1ccccc1)c1ccccc1 -9.43%
COc1ccc(N(C)C(=O)Cn2cnc3sc(C)c(S(=O)(=O)N4CCN(c5ncccn5)CC4)c3c2=O)cc1 -7.6%
Cc1ccc(-c2nc3cccc(C)n3c2Nc2ccc3c(c2)OCCO3)cc1 -8.08%
CCc1ccc(NC(=O)c2cnn(-c3c(C)cccc3C)c2C2CCN(C(=O)OC(C)(C)C)CC2)cc1 -7.57%
COc1ccc(-c2cn3c(n2)sc2cc(C(=O)Nc4ccc(C)c(Cl)c4)ccc23)cc1 -11.5%
